{
  "source": "the supplement of paper PMC10300432",
  "binders": {"B1": {"name": "C5266 (protein)", "chain 1": "EVQLVESGGDLVQPGGSLRLSCAASGFTFSSYWMHWVRQAPGKGLVWVSHINSDGSTTRYADSVKGRFTTSRDNAKNTLYLQMNSLRAEDTAVYYCANSLWLRGNFDYWGQGTLVTVSS", "chain 2": "NFMLTQPHSVSESPGKTVTISCTRSSGSIASNYVQWYQQRPGSAPTTVIYEDNQRPSGVPARFSGSIDSSSNSASLTISGLKTEDEADYYCQSYDSGNLYVFGTGTKVTVL"}, "B2": {"name": "C5269 (protein)", "chain 1": "EVQLVESGGGLVQPGGSLRLSCVASGFTLSDYSINWVRQAPGRGLEWISYISRAGRTIYSADSLKGRFTVSRDNPTNSLHLQMINLRAEDTAVYYCARGVPFHYWGQGTLVTVSS", "chain 2": "DIVMTQTPLSLPVTPGEPASISCRSSKSLLGRDDGNTYLDWFLQKPGQSPQLLIYTLSYRASGVADRFSGSGSGTDFTLKISRVEAEDVGVYYCMQRIEFPWTFGQGTKVEI"}, "B3": {"name": "C5270 (protein)", "chain 1": "EVQLLESGGGLEQPGGSLRFSCAASGFTFSSYAMSWVRQAPGKGLEWVSVISGSGDSTYYADSVKGRFTISRDNSKNTLYLQMNSLRAEDTAVYYCAKSSYYYDSSVMRSLLVSSFDYWGQGTLVTVSS", "chain 2": "QSALTQPASVSGSPGQSITISCTGTSSDVGFYKYVSWYQQHPGKAPKLMLYEVSNRPSGVTDRFSGSKSGNTASLTISGLQAEDEADYYCSSYTSSSTYVVFGGGTKLTVL"}, "B4": {"name": "C5321 (protein)", "chain 1": "EVQLVESGGGLVQPGGSLRLSCAASGFTFSSYSMNWVRQAPGKGLEWVSYISTSRRTIYYADSVKGRFTISRDNAKNSLYLQMNSLRAEDTAVYYCARDWYPDYYDSSGYYPNIYFDYWGQGTLVTVSS", "chain 2": "EIVLTQSPGTLSLSPGERATLSCRASQTYSGNYLTWYQQKPGQAPRLLIYGASSRATGIPDRFSGSGSGTDFTLTISRLEPEDFAVYYCQQYGSSPPTFGGGTKVEIK"}, "B5": {"name": "C5322 (protein)", "chain 1": "EVQLVESGGGLVQPGGSLRLSCAASGFTFSTYDMHWVRQPTGKGLEWVSAIGTSGDTYYPGSVKGRFTISRENAKNSLYLQMNSLRAGDTAVYYCARVDYTGSCSGGTCRSYWYFDLWGQGTLVTVSS", "chain 2": "DIQMTQSPSALSASVGDRVTITCRASQTISSYLNWYQQKAGKAPKLLIYAASNLQSGVPSRFSGSGSGTDFTLTISSLQPEDFATYYCQQTYSFPPEYPFGQGTKLEI"}, "B6": {"name": "C5323 (protein)", "chain 1": "QVQLVQSGAEVKKPGSSVKVSCKASGGTFSSYSITWVRQAPGQGLEWMGRIMPMLGIATYAQRFQGRVTITADTSTSTAYMELSSLRSEDTAIYYCAREGYYDSVTYPSLPTEKFDYWGQGTLVTVSS", "chain 2": "QSVLTQPPSVSGAPGQRVTISCTGTNSNIGAGYDVHWYQQLPGTVPKLLIYGNSNRPSGVPDRFSGSKSATSASLAITGLQAEDEADYYCQSYDSSLSASLFGGGTKLTVL"}, "B7": {"name": "C5324 (protein)", "chain 1": "QVQLVESGGGVVQPGRSLRVSCAASGFTFRSYVMHWVRQAPGKGLEWVAGQLYDGSNQYYADSVKGRFTMSRDNSKNTLYLQMNSLRAEDTAVYYCAKQGGGTYCSGGSCYSSYFDYWGQGTLVTVSS", "chain 2": "DIQMTQSPSTLSASVGDRVTITCRASQSISSWLAWYQKKPGKAPKLLIYEAYNLESGVPSRFSGSGSGTEFTLTISSLQPDDFATYYCQQYNSYSTFGQGTKVEIK"}, "B8": {"name": "C5325 (protein)", "chain 1": "QVQLVESGGGVVQPGRSLRLSCAASGFTFSSFAMHWVRQAPGKGLEWVAIISYDGVKEFYANSVKGRFTISRDNSKNTLFLQMNSLRAEDTAVYYCARDRQYIWGGYRSSLFYYGMDVWGQGTTVTVSS", "chain 2": "DIQMTQSPSSLSASVGDRVTIICQASQDINNYLNWYQQKPGKAPKLLIYDASDLETGVPSRFSGSGSGTDFTFTISSLQPEDIARYYCQQYDTLPFTFGGGTKVEI"}},
  "note": "Recombinant human monoclonal antibodies (heavy:light variable regions). ELISA EC50 on the named antigen, from 10 µg/ml down; IC50 against spike pseudovirus on HT1080-ACE2 cells, 48 h; lower = stronger. Calls: IC50 above 1,000 ng/ml = non-neutralizing; EC50 above 1,000 ng/ml = non-binder.",
  "data": [
    {"molecular_target": "SARS-CoV-2 Omicron BA.1 spike pseudovirus", "experiment": "pseudovirus neutralization IC50; higher = weaker neutralization", "method": "(§1)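 Single-round luciferase reporter pseudovirus mixed with antibody dilutions and put on HT1080-ACE2 clone 14 cells for 48 h; signal relative to no-antibody wells, four-parameter fit.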", "units": {"pseudovirus neutralization IC50": "µg/mL"}, "values": [
      {"binder": "B1", "pseudovirus neutralization IC50": "> 1"},
      {"binder": "B2", "pseudovirus neutralization IC50": 0.25},
      {"binder": "B3", "pseudovirus neutralization IC50": "> 1"},
      {"binder": "B4", "pseudovirus neutralization IC50": 0.0502},
      {"binder": "B5", "pseudovirus neutralization IC50": "> 1"},
      {"binder": "B6", "pseudovirus neutralization IC50": 0.0079},
      {"binder": "B7", "pseudovirus neutralization IC50": "> 1"},
      {"binder": "B8", "pseudovirus neutralization IC50": "> 1"}
    ]},
    {"molecular_target": "SARS-CoV-2 Omicron BA.4/5 spike pseudovirus", "experiment": "pseudovirus neutralization IC50; higher = weaker neutralization", "method": "as §1", "units": {"pseudovirus neutralization IC50": "µg/mL"}, "values": [
      {"binder": "B1", "pseudovirus neutralization IC50": "> 1"},
      {"binder": "B2", "pseudovirus neutralization IC50": "> 1"},
      {"binder": "B3", "pseudovirus neutralization IC50": "> 1"},
      {"binder": "B4", "pseudovirus neutralization IC50": 0.026},
      {"binder": "B5", "pseudovirus neutralization IC50": "> 1"},
      {"binder": "B6", "pseudovirus neutralization IC50": 0.709},
      {"binder": "B7", "pseudovirus neutralization IC50": "> 1"},
      {"binder": "B8", "pseudovirus neutralization IC50": "> 1"}
    ]},
    {"molecular_target": "SARS-CoV-2 Wuhan-Hu-1 spike pseudovirus", "experiment": "pseudovirus neutralization IC50; higher = weaker neutralization", "method": "as §1", "units": {"pseudovirus neutralization IC50": "µg/mL"}, "values": [
      {"binder": "B1", "pseudovirus neutralization IC50": 0.0314},
      {"binder": "B2", "pseudovirus neutralization IC50": 0.00273},
      {"binder": "B3", "pseudovirus neutralization IC50": 0.0309},
      {"binder": "B4", "pseudovirus neutralization IC50": 0.0547},
      {"binder": "B5", "pseudovirus neutralization IC50": "> 1"},
      {"binder": "B6", "pseudovirus neutralization IC50": 0.022},
      {"binder": "B7", "pseudovirus neutralization IC50": "> 1"},
      {"binder": "B8", "pseudovirus neutralization IC50": 0.0149}
    ]},
    {"molecular_target": "SARS-CoV-2 Wuhan-Hu-1 spike receptor-binding domain", "experiment": "ELISA binding EC50; higher = weaker binding; ELISA of recombinant human antibody on coated antigen, from 10 µg/ml in fourfold dilutions; four-parameter fit.", "units": {"ELISA binding EC50": "µg/mL"}, "values": [
      {"binder": "B1", "ELISA binding EC50": 0.00427},
      {"binder": "B2", "ELISA binding EC50": 0.00501},
      {"binder": "B3", "ELISA binding EC50": 0.00329},
      {"binder": "B4", "ELISA binding EC50": 0.00315},
      {"binder": "B5", "ELISA binding EC50": 0.00351},
      {"binder": "B6", "ELISA binding EC50": 0.00496},
      {"binder": "B7", "ELISA binding EC50": 0.00409},
      {"binder": "B8", "ELISA binding EC50": 0.00496}
    ]}
  ]
}
